The shares of active, inactive and inconclusive entries below differ from those in the screen. For some assays here: No potency is given beside an inconclusive call; the fits are too rough. The source made the active and inactive calls. Unless noted, calls come from the whole dose curve; as a rule, active = well fitted curve in the direction sought with a large enough effect; inconclusive = small, poorly fitted or top-dose-only effect, or another doubt; inactive = no such curve, though single readings can be large; an effect the other way counts as inactive or inconclusive.
Legend:
[1] = Cell Viability - Hek293 (AID 427;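 active = compounds whose dose-response curve shows a full or clear partial loss of cell viability, called from curve shape rather than a numeric limit; inconclusive = weak partial curves or an effect only at the top dose; inactive = no dose-dependent loss of viability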;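 note: potency is the fitted concentration of half-maximal effect; cells exposed to compound for 40 hours at 37 °C before reading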); settings: qHTS
Procedure, shortened: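 Luminescent ATP content (CellTiter-Glo, 20 min at room temperature) was measured after a 40 hr, 37 °C compound exposure of HEK293 cells. AC50 values came from Hill-equation fits of qHTS concentration-response data normalized to DMSO and 100 uM tamoxifen.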

[2] = Cell Viability - HepG2 (AID 433; calls by dose curve;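 note: potency is the fitted concentration of half-maximal effect; potency for ATP loss meaning cytotoxicity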); settings: qHTS
Procedure, shortened: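 Cytotoxicity read as ATP loss (CellTiter-Glo luminescence) after 40 hr compound exposure of HepG2, 1500 cells/well, 37 °C. AC50 by Hill equation; 0% set by DMSO, 100% inhibition by 100 uM tamoxifen.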

[3] = Cell Viability - N2a (AID 540); settings: N2a mouse neuroblastoma cell viability; activity change, negative = cytotoxicity: at 92.2 µM (top of the series);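 note: cells exposed to compound for 40 h at 37 °C; plate controls were DMSO alone for no effect and tamoxifen control for full effect; nearly all actives have a fitted effect of over 45% in size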
Procedure, shortened: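 Luminescent ATP signal (CellTiter-Glo, 20 min at room temperature) served as the viability read-out after N2a cells were treated with compounds for 40 hours at 37 °C. Concentration-response data were fitted to the Hill equation for AC50.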

[4] = Cell Viability - Renal Proximal Tubule (AID 545); settings: renal proximal tubule cells viability; activity change, negative = cytotoxicity: at 91.7 µM (top of the series) unless noted; note: potency is the fitted concentration of half-maximal effect; nearly all actives have a fitted effect of over 40% in size
Procedure, shortened: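 Viability taken as intracellular ATP (CellTiter-Glo luminescence) after 40 hr, 37 °C compound treatment of primary proximal tubule cells from rat kidney, 1000 cells/well; Hill-equation fits of qHTS concentration-response data gave AC50.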

[5] = Cell Viability - Mesenchymal (AID 546); settings: mesenchymal cells viability, qHTS; activity change, negative = cytotoxicity: at 91.7 µM (top of the series);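 note: cells exposed to compound for 40 hours before reading; 0% = DMSO only and -100% = 100 µM tamoxifen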
Procedure, shortened: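 AC50 values reflect the drop in intracellular ATP in a human kidney mesenchymal line derived from normal glomeruli. Treatment lasts 40 hr at 37 °C in complete medium, and the signal comes from CellTiter-Glo luminescence.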

[6] = target: Cytochrome P450 3A4 (Homo sapiens) (UniProt P08684); experiment: qHTS Assay for Inhibitors and Substrates of Cytochrome P450 3A4 (AID 884); note: potency is the fitted concentration of half-maximal effect; nearly all actives have a fitted effect of over 50% in size
UniProt P08684, sequence (P08684 whole entry, looked up): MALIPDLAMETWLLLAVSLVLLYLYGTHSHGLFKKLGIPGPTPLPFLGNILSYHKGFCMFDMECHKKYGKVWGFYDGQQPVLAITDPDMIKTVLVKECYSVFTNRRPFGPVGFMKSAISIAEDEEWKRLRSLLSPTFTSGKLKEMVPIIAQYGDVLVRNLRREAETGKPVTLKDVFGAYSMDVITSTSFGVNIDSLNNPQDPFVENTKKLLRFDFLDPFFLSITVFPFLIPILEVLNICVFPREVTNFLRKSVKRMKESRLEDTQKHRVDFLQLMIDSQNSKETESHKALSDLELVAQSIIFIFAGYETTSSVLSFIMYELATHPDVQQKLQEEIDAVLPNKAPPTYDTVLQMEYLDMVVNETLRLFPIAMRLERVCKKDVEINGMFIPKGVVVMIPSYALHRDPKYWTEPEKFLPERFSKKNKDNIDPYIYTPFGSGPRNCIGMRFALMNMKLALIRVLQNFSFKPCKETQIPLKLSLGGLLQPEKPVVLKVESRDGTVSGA
Procedure, shortened: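 20 nM human CYP3A4 with 25 uM Luciferin-PPXE (at KM) in 200 mM KPO4, preincubated 10 min with compound; NADPH regeneration started a 60 min RT reaction. Luciferin detected by luminescence, normalized to 57 uM ketoconazole as full inhibition.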

[7] = Cell Viability - LYMP2-001 (AID 921); settings: LYMP2-001 lymphoblastoid cell viability; activity change, negative = cytotoxic: at 92.2 µM (top of the series); note: potency is the fitted concentration of half-maximal effect; nearly all actives have a fitted effect of over 70% in size
Procedure, shortened: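 Cellular ATP loss read by luciferase luminescence after 24 h compound exposure at 37 C in complete medium. LYMP2-001 lymphoblastoid cells, 2500/well; qHTS concentration-response data fitted with Hill equation for AC50.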

[8] = MultiTox-Fluor Cytotoxicity Assay - LYMP1-002 - Dead Cells (AID 960); settings: LYMP1-002 lymphoblastoid cells, dead-cell protease fluorescence; cytotoxicity (dead cells): at 46.1 µM (top of the series); note: nearly all actives have a fitted effect of over 60% in size
Procedure, shortened: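 LYMP1-002 cells 2500/well; 5 hr 37 C pre-incubation; compound 16 hr 37 C; MultiTox-Fluor reagent 60 min RT; dead-cell fluor Ex/Em 485/520. Norm. to DMSO (0%) vs 15 uM tetraoctylammonium bromide (100%); Hill AC50.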

[9] = MultiTox-Fluor Cytotoxicity Assay - LYMP1-003 - Dead Cells (AID 961); note: potency is the fitted concentration of half-maximal effect; nearly all actives have a fitted effect of over 70% in size
Procedure, shortened: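 Dead-cell protease release, detected as bis-AAF-R110 fluorescence at 485/520 nm, was measured in LYMP1-003 cells after 16 h compound treatment at 37 C. AC50 values came from Hill-modeled qHTS curves normalized to DMSO (0%) and 15 uM tetraoctylammonium bromide (100%).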

[10] = Cell Viability - LYMP1-003 - Assay at 40 hr (AID 964); note: potency is the fitted concentration of half-maximal effect; nearly all actives have a fitted effect of over 60% in size
Procedure, shortened: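 Cells were seeded at 2500 per well and incubated 5 hr at 37 C. Compounds were added across a concentration series and left 40 hr at 37 C. CellTiter-Glo was added for 30 min at room temperature before luminescence reading.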

[11] = Cell Viability - LYMP2-004 (AID 966); settings: LYMP2-004 lymphoblastoid cell viability, qHTS; activity change, negative = cytotoxicity: at 92.2 µM (top of the series); note: potency is the fitted concentration of half-maximal effect; nearly all actives have a fitted effect of over 65% in size
Procedure, shortened: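 Cells seeded 2500/well, rested 5 hr at 37 C, dosed across a concentration series, incubated 24 hr at 37 C, then CellTiter-Glo added for 30 min at room temperature and luminescence read. Hill fitting gave AC50.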

[12] = Cell Viability - LYMP2-005 (AID 967); note: potency is the fitted concentration of half-maximal effect
Procedure, shortened: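 LYMP2-005 human lymphoblastoid cells (2500/well) were treated with compounds for 24 h at 37 C. Intracellular ATP was then measured by CellTiter-Glo luminescence after 30 min at room temperature. AC50 values came from Hill-equation fits of qHTS concentration-response data.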

[13] = Cell Viability - LYMP2-009 (AID 968); note: potency is the fitted concentration of half-maximal effect; nearly all actives have a fitted effect of over 55% in size
[14] = Cell Viability - LYMP2-011 (AID 969); settings: LYMP2-011 lymphoblastoid cells viability; viability change, negative = cytotoxic: at 92.2 µM (top of the series); note: potency is the fitted concentration of half-maximal effect; nearly all actives have a fitted effect of over 60% in size
Procedure, shortened: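 2500 cells/well, 5 hr 37 C; compound added, 24 hr 37 C; CellTiter-Glo 30 min RT; luminescence. qHTS concentration-response, Hill-equation AC50. Tetraoctylammonium bromide positive control.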

[15] = Cell Viability - LYMP2-013 (AID 970); settings: LYMP2-013 lymphoblastoid cells viability; activity change, negative = cytotoxic: at 92.2 µM (top of the series); note: potency is the fitted concentration of half-maximal effect; nearly all actives have a fitted effect of over 55% in size
Procedure, shortened: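 qHTS; 2500 lymphoblastoid cells/well; 5 hr 37 C settle; cpd 24 hr 37 C; CellTiter-Glo, 30 min RT; luminescence. AC50 = Hill fit.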

[16] = Cell Viability - LYMP2-002 (AID 977); settings: LYMP2-002 lymphoblastoid cell viability, qHTS; activity change, negative = cytotoxic: at 92.2 µM (top of the series); note: potency is the fitted concentration of half-maximal effect
Procedure, shortened: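 Cytotoxicity is scored as concentration-dependent loss of cellular ATP in a human lymphoblastoid line after 24 hr compound treatment at 37 C. AC50 is obtained by modelling concentration-response data with the Hill equation.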

[17] = Cell Viability - LYMP2-006 (AID 978); note: potency is the fitted concentration of half-maximal effect; nearly all actives have a fitted effect of over 60% in size
Procedure, shortened: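 Potency values are Hill-fit AC50s for decreases in intracellular ATP (CellTiter-Glo luminescence). LYMP2-006 lymphoblastoid cells, 2500 per well, were exposed to compound in complete culture medium for 24 hr at 37 C.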
Tags give direction and shape of the fitted curve.

In the case of CC(=O)[O-].CC(=O)[O-].O.O.[Cd+2], the Potency [1] was inconclusive [partial curve], the Potency [2] was inconclusive [single point] and the activity change, negative = cytotoxicity [3] was active: -111%. The Potency [4] was active: 25.1 µM [primary cells of rat origin], the activity change, negative = cytotoxicity [5] was inconclusive: -96.4% and the Potency [6] was inconclusive [inhibitor, partial curve]. For the same compound, the Potency [7] was inconclusive [cytotoxic, partial curve, poor fit], the Potency [8] was “inactive” and the Potency [9] was inconclusive [falling, partial curve]. For the same compound, the Potency [10] was inconclusive [cytotoxic, partial curve], the Potency [11] was inconclusive [cytotoxic, partial curve, poor fit] and the Potency [12] was active: 31.6 µM. For the same compound, the Potency [13] was inconclusive [cytotoxic, partial curve, poor fit], the Potency [14] was inconclusive [cytotoxic, single point] and the Potency [15] was inconclusive [cytotoxic, single point]. For the same compound, the Potency [16] was inconclusive [cytotoxic, partial curve, poor fit] and the Potency [17] was inconclusive [cytotoxic, partial curve, poor fit].

From PubChem BioAssay (NCATS)
